Test results as given in the supplement of paper PMC11417369.
± gives the standard deviation of the averaged measurements. The list shows a part of the results.

tested on: PfAP2-LT AP2 domain (GST-tagged); assay: gcPBM binding intensity (ln(normalized median fluorescence intensity)); higher = stronger DNA binding
How it was run: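 Probes on an Agilent 4 × 180k array were primer-extended, double-stranded and 36 bp long, taken from intergenic genomic regions, with negative controls added. GST-tagged P. falciparum DNA-binding domains from E. coli, about 25 μg on average, were applied to the array for 1 h in 1× PBS containing 1% milk, 0.2 mg/ml BSA, 0.5% salmon testes DNA and 0.03% Triton X-100. Binding intensity, obtained after Alexa488 anti-GST antibody detection and a 488 nm scan, is the highest Masliner-normalised natural-log median intensity across replicate spots of either probe orientation.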

Row | Sequence | gcPBM binding intensity (ln)
1 | TTTTGGCTGATCAGATTTAACAAAAAAAAAAAAAAA [CACACA_negctrl_site671] | 8.21 ± 0.39
2 | CAAATATATATTTTCTGTACAAATACAATTAATACT [XGTACX_site2694] | 8.54 ± 0.52
3 | CCTTCAATTTACATAACACACATTTAACCATAATAA [CACACA_site2394] | 8.72 ± 0.41
4 | TTTAGCCAATTTTTAAAGTTTAAAAAAGAAAAAAGA [CACACA_negctrl_site118] | 8.16 ± 0.35
5 | TATTAAAAATACATATGTACTCATAGCATAAAACAT [XGTACX_site8686] | 8.89 ± 0.3
6 | ATATATATATTTGTGTGTACATATTAATTTGTATGA [XGTACX_site4047] | 9.13 ± 0.35
7 | AACGCGAACAATTTATAGATAACTTTTAATTATTAT [GTGCAC_negctrl_site179] | 8.63 ± 0.5
8 | TATATATATATAAACTGTACTATTTTATGTTAAAAG [XGTACX_site3630] | 8.63 ± 0.34
9 | ATTTAATACAAATACACACACAAATATATACATATA [CACACA_site3747] | 9.44 ± 0.34
10 | AATATATATATAGGATGTACACATAATTCAAATACA [XGTACX_site6368] | 8.99 ± 0.47
11 | ATACATTTTTGTAAAAGTACATATACATGCCCCCTT [XGTACX_site1367] | 9.15 ± 0.19
12 | ATGGTATATCCAAATAAACACACGTAAATACATAAA [CACACA_site1682] | 9.01 ± 0.5
13 | GTAAGTTTGAATACACGTACAAATTTATTAAAGTCC [XGTACX_site6722] | 8.91 ± 0.39
14 | TTCCAAAATTGCATTTGTACCCAAAAAATGTATACG [XGTACX_site7680] | 8.64 ± 0.35
15 | AGATATTAAAACGTTACACACATTTATATATCTTCT [CACACA_site908] | 9.07 ± 0.4
16 | GCTTTTTATTTTTACCGTACATTATATATGTATATA [XGTACX_site808] | 9.05 ± 0.29
17 | ATCAGTCGGCAGGACAGTACACAGTAGCCAGGAAAT [XGTACX_site2003] | 9.18 ± 0.53
18 | ATATTATTAATTTATAGTACTCATTTTTTTTTTTTT [XGTACX_site3536] | 8.71 ± 0.43
19 | TTTCTAGTTACAAGAGTGCATAATATATAAAAATAA [GTGCAC_site9874] | 8.47 ± 0.45
20 | TATATATATATATATACACACATTTTTAATGATAAA [CACACA_site2695] | 9.39 ± 0.014
21 | TATAAATACAATTCACAAGAGATCATGTATCAAACC [CACACA_negctrl_site1219] | 8.84 ± 0.42
22 | ATATAATAAATATGTTGTACTATAAAAAATAGCCAT [XGTACX_site4710] | 8.78 ± 0.33

Row | Sequence | gcPBM binding intensity (ln)
23 | TATATATTATATATATGTACATATTGTTGTGTATAT [XGTACX_site767] | 9.01 ± 0.44
24 | ATCTCTGTAAAGATCACACATATATTTTTGTTATAT [CACACA_site5094] | 8.94 ± 0.44
25 | TTTATAATTTATATCACACATATATCTGTAATAAAT [CACACA_site5048] | 8.62 ± 0.45
26 | CATATATGTTATATTTAACACACATATAAGGTACAT [CACACA_site8105] | 9.02 ± 0.33
27 | CAGCTCTTAAAAATTACACACATATACACATATATA [CACACA_site9073] | 8.97 ± 0.38
28 | TTATTACACACATATGTGCACATATAAAAGTACACG [GTGCAC_site9581] | 9.16 ± 0.27
29 | AAAAATTCTTGGCGCACACACTTTAAAAATTAAAAA [CACACA_site4498] | 8.98 ± 0.43
30 | TTATATTTTCAGAATAGTACACATATATACATATAT [XGTACX_site2519] | 8.78 ± 0.54
31 | GATCATTTAAAATAAGTAATATTTTTTTTACTTTTG [TGCATGCA_negctrl_site602] | 8.38 ± 0.52
32 | TTATAAAAGAAAAAAAAAAAAAAAAAAAAAAAAAAA [CACACA_negctrl_site1006] | 8.03 ± 0.37
33 | TTAGTCGAATGATGTACACACATACAAAACATTTAT [CACACA_site6076] | 9.22 ± 0.35
34 | ACTAATTACTATAAAACACACATATATATATATATA [CACACA_site2591] | 9.72 ± 0.46
35 | AGAAAATATTTTGGTTGTACAGGCGATTTATATGTT [XGTACX_site7253] | 9.08 ± 0.38
36 | AAAAAAAAAAAAAAAAAAAAAAAAAAAAGAAAAAAG [GTGCAC_negctrl_site583] | 8.42 ± 0.31
37 | ATATTATTAATTTGTTGTACAGTTCTTTATTTATAG [XGTACX_site7932] | 8.84 ± 0.32
38 | TATATGTTTGAATATACACACAACATATATATATAT [CACACA_site4066] | 9.22 ± 0.26
39 | TATATTAAAAAAAAATGTACACATATATATATATAT [XGTACX_site4524] | 9.34 ± 0.028
40 | CCAGGAAAAATTTATTGTACATATATTTTTATGCTC [XGTACX_site7154] | 8.64 ± 0.44
41 | TATTTTTGGTTATGTGTGCACTATGAACAACAAAAT | 8.9 ± 0.26
42 | TATATCTCTTTATTCACACATACGTTTTAAAATAAT [CACACA_site5542] | 8.77 ± 0.45
43 | TATAAATAAAGACACACACACACACCGTATAATTAC [CACACA_site7829] | 10 ± 0.25
44 | TTCCCAACATGATATTGTACATTTAATTATAATTAA [XGTACX_site7029] | 8.53 ± 0.34

Row | Sequence | gcPBM binding intensity (ln)
45 | TAATAAAACATATATACACACATTAGATATACATAT [CACACA_site6897] | 9.07 ± 0.36
46 | GAAAGAAAATATTAAGTGCATATTTTAATGATACAA [GTGCAC_site9712] | 8.73 ± 0.54
47 | ATAAAAATAAAAAAAACACACATACCTTATTTTTGT [CACACA_site5452] | 8.93 ± 0.47
48 | ATTTTCCATATATTTTGTACATATGTATATTTTCCC [XGTACX_site7795] | 9.2 ± 0.49
49 | TATAAAAAATTATGTTGTACGTAATATAAAATTTGT [XGTACX_site7122] | 8.56 ± 0.38
50 | AATCAAAATAAATTAACACACAATTTTAATATTGTT [CACACA_site10] | 8.74 ± 0.39
51 | AAATATAAATGGTAATACACATACACACACACATAC [XGTACX_negctrl_site459] | 9.96 ± 0.24
52 | TATTTTTAACAGTGCACACATAACTTAATTATATGT [CACACA_site2194] | 9.12 ± 0.33
53 | AGATATTTTTCTTAAGTACACACTAATTAGAAACTA [CACACA_site7897] | 8.55 ± 0.46
54 | TTTTTATTTTAAAAGAATAATTATCTAATATCTATA [CACACA_negctrl_site371] | 8.18 ± 0.47
55 | TCGAACGTATCATGTGTACACACAAATTGTTTTTTT [CACACA_site8623] | 9.28 ± 0.35
56 | GTATAAAAGTAACTAGTGCATTACATATGAATAAAA | 8.88 ± 0.52
57 | CCTTGCCCCAGGAGTTCACACACATAATAGATTGTC [CACACA_site8138] | 9.3 ± 0.39
58 | AAAAGAAGAAACAAAACACACACAGTCTTCTTTTCT [CACACA_site9015] | 9.62 ± 0.4
59 | ATTTGTGTTATTCGAAGTACGGATCATTTGAAATAA [XGTACX_site2510] | 8.56 ± 0.41
60 | TTTATGAGGTTACTATGTACGCAAATTATGTAATAA [XGTACX_site325] | 8.55 ± 0.38
61 | TCAAATTATTAAAATACACACATATTATATATATAT [CACACA_site2530] | 8.89 ± 0.42
62 | AGCAATTTGGGGTGTACACACACCTTATTTAAATTA [CACACA_site1157] | 8.96 ± 0.5
63 | GACACCTGCATGAAAGTGCAAAATAGAAAAGGAACA [GTGCAC_site9593] | 9.18 ± 0.47
64 | TTACCTCTTTGAAATATACACACTAAACATATCAAC [CACACA_site2455] | 8.88 ± 0.4
65 | AAGGAATAATAATAAATGTAAAGAAAAGCATACTGA [CACACA_negctrl_site36] | 8.82 ± 0.49
66 | AACACGCACAGACACACACACAAAAATGATTAAAAA [CACACA_site7195] | 9.71 ± 0.61

Row | Sequence | gcPBM binding intensity (ln)
67 | AAATACCTTATATATACACACTATGTTTTTCTTTTT [CACACA_site4792] | 8.93 ± 0.43
68 | AAAAAAATAAATAAGACACACACAAAAAAAAAAAAA [CACACA_site8404] | 9.26 ± 0.45
69 | TCTTGTTATAATAATCAATATATGGGTATACTTATG [CACACA_negctrl_site1618] | 8.77 ± 0.47
70 | AAAAGGATTTTTTATACACACACTAACTAATGTATA [CACACA_site2356] | 9.01 ± 0.4
71 | AAATAATAAATATATCGTACAAATATCATATATAAA [XGTACX_site2771] | 8.89 ± 0.42
72 | TTTCCTCATTTTATCATACACACTTGTTTATATGTG [CACACA_site8202] | 9.11 ± 0.45
73 | TCCTGTTGAGAATGGCGTACATATAAATATTATATA [XGTACX_site1841] | 8.55 ± 0.42
74 | TTTTTTCTTTTTATAACACACAGGTGAAAAATAATA [CACACA_site1850] | 8.36 ± 0.43
75 | TATTACTTTATATATACACACATATAACATAAATGC [CACACA_site3948] | 8.96 ± 0.35
76 | CAGGTTCTTATATAGTGTACTATAGACATTCAATTG [XGTACX_site7239] | 8.79 ± 0.39
77 | TAAATAATAATAAAATGTACATTATATATGTATATG [XGTACX_site8672] | 8.71 ± 0.4
78 | TTTTTTTTTTTTTTCTGTACTGATACTTATAGAGTT [XGTACX_site4736] | 8.57 ± 0.54
79 | ATATACTTACATATTACACACAATATTTTTAAATGG [CACACA_site5916] | 8.91 ± 0.38
80 | CTTTTGCCCAAAAAGGTACACACCACAAAGTACATA [CACACA_site8169] | 8.79 ± 0.47
81 | TTGTATATACTATACACACACATACATACATACATA [CACACA_site814] | 9.33 ± 0.31
82 | TATTTATAATTAAATACACACATATATTATAGATTT [CACACA_site6435] | 8.69 ± 0.35
83 | TTTTATTCATCATATTGTACATTCTTGTATTTATAG [XGTACX_site8534] | 8.86 ± 0.41
84 | TCCCTGATGTTATTTAATATACCATAAAAAAAAAAA [CACACA_negctrl_site1472] | 8.28 ± 0.41
85 | AATAAAAAATAAAAAAGTACATGATGAAAAGGTTTA [XGTACX_site7615] | 8.8 ± 0.56
86 | CACACTTTATAATGTTGTACGATACATTATACCAAA [XGTACX_site941] | 8.81 ± 0.4
87 | TATATATATATATATACATGCATACAATTTTATGAG [TGCATGCA_site466] | 9.62 ± 0.64
88 | ATCTCAAATATAATAAATTATTAGGTATATATATAT [CACACA_negctrl_site1828] | 8.77 ± 0.21
